Experimental data as given in PubChem BioAssay AID1963576 (National Center for Advancing Translational Sciences (NCATS), 2024).
The whole screen tested about 46,000 compounds, of which about 60 (0.1%) were called active. Inconclusive results (about 3%) are left out. The call rests on the fitted dose curve; in most records, active means well fitted inhibition curve with a large enough effect; inconclusive means small, poorly fitted or top-dose-only effect; inactive means no such curve, though single readings can be large or run the other way. The list shows a part of the results.

Assay: Primary qHTS assay for Inhibitors of ovarian cancer metastasis using an organotypic tumor microenvironment (TME) model. Further: nearly all actives have a fitted effect of over 65% in size.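 On activity change, negative = inhibition: plate controls were DMSO wells for no effect and tomatine positive control wells for full effect.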
Details: SKOV3ip1-GFP adhesion/invasion on 3D omental model, fluorescence; series mostly up to 45.8 µM; activity change, negative = inhibition: at the top concentration
Outline: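 A 3D layer of primary human omental fibroblasts, mesothelial cells, fibronectin and collagen I, grown 48 hr, received SKOV3ip1-GFP cells in serum-free medium plus compounds at 0.36-46 umol/L. After 2 hr RT and 16 hr 37 C, fixed adherent GFP cells were counted; normalized to DMSO and tomatine.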

Activity change, negative = inhibition, inactive:
CC(C)c1noc(-c2ccccc2OCC(=O)Nc2cccc([N+](=O)[O-])c2)n1 -0.232%, CCOc1ccc(-c2c(C)nn3c(C)c(C(=O)Nc4cc(C)cc(C)c4)cnc23)cc1OCC -12.9%, Cc1ccc(CN(C(=O)COc2cc(C)c(Cl)c(C)c2)c2ccccn2)o1 13.1%, CC(=O)N1CCc2cc(Br)cc(S(=O)(=O)CCC(=O)N3CCN(c4ccccc4Cl)CC3)c21 3.38%, CCOc1ccc(Nc2c(S(=O)(=O)c3ccccc3)cnc3ccc(F)cc23)cc1 -5.63%, COc1cc(C2CC(=O)Oc3c2c(=O)[nH]c2ccccc32)cc(OC)c1OC (stereo not drawn) -9.17%, COc1ccccc1N1CCN(S(=O)(=O)c2c(C)nc3sccn3c2=O)CC1 1.69%, Cc1c(C)c2cc3c(c(C)c2oc1=O)OCN(CCc1ccc(F)cc1)C3 -7.09%, Cc1nn2c(C)c(C(=O)NC(C)(C)C)cnc2c1-c1ccc(F)cc1 2.62%, COc1ccccc1C(=O)Nc1ccc(C(=O)OCc2cc(=O)n3nc(C4CC4)sc3n2)cc1 7.53%, COc1ccc(N2C(=O)CSC23C(=O)N(CC(=O)NCCc2ccccc2)c2ccccc23)cc1 (stereo not drawn) 21.9%, CCc1ccc(Cn2c(CNS(=O)(=O)c3ccc(C)c(C)c3)nc3cccnc32)cc1 9.63%, COc1ccc(NC(=O)Cn2c(=O)n(Cc3ccccc3)c(=O)c3sc4ccccc4c32)cc1 24.9%, CCOc1ccc(C(=O)Nc2ccc3oc(-c4ccc5ccccc5c4)nc3c2)cc1 3.39%, CCCCNC(=O)c1cc2n(n1)CCCN(Cc1ccc(C)cc1)C2=O 21.3%, Cc1ccc(N2CC(NC(=O)c3cc4ccccc4o3)CC2=O)cc1 (stereo not drawn) -7.83%, N#Cc1ccccc1NS(=O)(=O)c1ccc(N2CCCCS2(=O)=O)cc1 16.1%, CN1C(=O)c2ccccc2Sc2ccc(NC(=O)c3ccc(C(F)(F)F)cc3)cc21 -8.92%, COc1ccc(-c2nc3scc(CCNS(=O)(=O)c4ccc(F)cc4C)n3n2)cc1 -28.7%, COC(=O)c1cc2oc3ccccc3c2n1Cc1ccc(Cl)cc1 -11.7%, CCn1c2c(c(=O)n3ncc(C(=O)N4CCN(c5ccc(Cl)cc5)CC4)c13)CN(Cc1ccc(OC)cc1)CC2 2.76%, CCC(Oc1ccc(F)cc1)C(=O)Nc1c(C(=O)c2ccc(C)cc2)oc2ccccc12 (stereo not drawn) -7.68%, CCn1cc(C(=O)N2CCN(c3ccccc3)CC2)c(=O)c2cc(S(=O)(=O)N3CCOCC3)ccc21 7.77%, COc1ccc(NC(=O)c2ccc3nc(C(C)C)oc3c2)cc1OC 8.65%, Cc1ccc(Cn2c(CO)cnc2SCC(=O)Nc2ccc(C)c(Cl)c2)cc1 10.7%, CC(C)COc1ccc(C(=O)N2CCN(CCc3ccncc3)CC2)cc1 8.28%, O=C1CSC2(C(=O)N(Cc3cccc(F)c3)c3ccccc32)N1c1cccc(C(F)(F)F)c1 (stereo not drawn) 52.8%, CC(C)(F)C[C@H](N[C@@H](c1ccc(-c2ccc(S(C)(=O)=O)cc2)cc1)C(F)(F)F)C(=O)NC1(C#N)CC1 -7.71%, CCOC(=O)c1[nH]c(C)c(CCC(=O)NCc2ccc(CC)cc2)c1C 5.59%, CCN(CC)CCNC(=O)c1cc2c(=O)n(C)c3cc(Cl)ccc3c2s1 -4.78%, COc1ccc(Nc2cc(C(=O)NCCCN3CCN(c4ccccc4F)CC3)c3ccccc3n2)c(OC)c1 -26.9%, COc1cccc(CN2c3ccccc3-c3nc(SCC(=O)Nc4ccccc4Cl)ncc3S2(=O)=O)c1 0.707%, CON=C(C(=O)N[C@@H]1C(=O)N2C(C(=O)OCOC(=O)C(C)(C)C)=C(C=Cc3scnc3C)CS[C@H]12)c1csc(N)n1 25.4%, COc1ccc(N(Cc2cccs2)C(=O)c2ccc(OC)c(Cl)c2)cc1 -12.8%, COc1ccc(NC(=O)Cn2cc(S(=O)(=O)c3ccccc3)c(=O)c3cc4c(cc32)OCO4)cc1 8.17%, COC(=O)c1ccc(NC(=O)CC2C(=O)N(c3ccccc3)C(=O)N2Cc2ccc(F)cc2)cc1 (stereo not drawn) 2.53%, CCC(=O)Nc1ccccc1-c1nc2ccccc2n(CC(=O)Nc2ccccc2OC)c1=O -4.27%, Cc1c(C(=O)Nc2ccccc2)sc2nc(-c3cc4cc(Cl)ccc4oc3=O)[nH]c(=O)c12 -3.47%, CCCS(=O)(=O)c1c(S(=O)(=O)CCC)c2cc(C(C)(C)C)ccn2c1C(=O)c1ccccc1 3.41%, O=C(Cn1ccn(-c2ccc(F)cc2)c(=O)c1=O)Nc1ccc(F)cc1 -3.49%, Cc1cccc(C)c1NC(=O)C(NS(=O)(=O)c1cccs1)c1ccccc1 (stereo not drawn) 7.87%, O=C(NCCc1ccc(Cl)cc1)c1ccc(CS(=O)(=O)c2ccc(Cl)cc2)o1 -15.7%, O=C(CSc1nnc(-c2cccs2)o1)Oc1ccccc1Cl 4.19%, COc1cccc(N2CCN(C(=O)c3cc4c(s3)-c3ccccc3OC4)CC2)c1 -7.13%, CCN(CC)C(=O)c1sc2c(c1C)c(=O)n(CCc1ccccc1)c(=O)n2Cc1cc(C)ccc1C 3.29%, COc1cc(CNC(=O)c2ccc3c(c2)c(C)c(C)n3Cc2cccc(C)c2)cc(OC)c1OC 0.176%, O=C(Cn1ncc2c3ccccc3n(Cc3cccc(Cl)c3)c2c1=O)Nc1ccc(F)cc1F -0.82%, CCc1ccc(Sc2cc(C(=O)NCCCN3CCC(C)CC3)c3ccccc3n2)cc1 20.7%, Cc1cccc(C)c1Nc1c(-c2ccsc2)nc2cccc(C)n12 8.07%, COc1ccccc1N1CCN(c2csc3ccccc3c2=O)CC1 2.21%, COc1cccc(NC(=O)Cn2c(-c3nonc3N)nc3ccccc32)c1 -4.04%, Cc1cccc(NC(=O)N2CCN3CCCCC3C2)c1C (stereo not drawn) 0.767%, COc1cc(NC(=O)CCS(=O)(=O)c2ccc3c(c2)n(C)c(=O)c(=O)n3C)cc(OC)c1 -9.32%, O=C(Nc1cc(Cl)ccc1Cl)c1cc(S(=O)(=O)N2CCc3ccccc3C2)ccc1F 1.02%, CCc1ccc(NC(=O)C2CCCN(c3nnc(C)c4c(C)n(-c5ccccc5)nc34)C2)cc1 (stereo not drawn) 8.69%, O=c1c(-c2cc(-c3ccccc3)nc3c2COc2ccccc2-3)coc2ccc(Cl)cc12 -16.1%, COc1ccc(CNC(=O)C(=O)Nc2cccc(C)c2C)cc1 -4.95%, COc1ccc2oc(-c3ccc(NC(=O)c4ccc(Cl)cc4Cl)cc3)nc2c1 -25.5%, Cc1ccc(-n2ncc3c(N4CCN(c5ccc(F)cc5)CC4)ncnc32)cc1 -7.89%, Cc1ccccc1N1CC(c2nc3ccccc3n2Cc2ccc(Br)cc2)CC1=O (stereo not drawn) -3.31%, Cc1cc(Br)ccc1NC(=O)c1c(C)oc2ncnc(N3CCCCC3)c12 -4.89%, COc1cc2nccc(Oc3ccc(NC(=O)Nc4ccc(F)cc4F)c(F)c3)c2cc1OC -20%, Cc1cc(NC(=O)c2cc(-c3ccc(Cl)c(Cl)c3)on2)n(-c2ccccc2)n1 0.693%, CCOc1ccc(CNC(=O)C2CCN(C(=O)N3CC(CC)Oc4ccc(C)cc43)CC2)cc1OC (stereo not drawn) -13.1%, COc1ccccc1NC(=O)Cn1c(=O)n(CC2CCC(C(=O)NCCc3ccccc3)CC2)c(=O)c2ccccc21 (stereo not drawn) 3.52%, O=C(Cn1c(-c2cccs2)cc2ccccc21)N1CCN(c2ccc(F)cc2)CC1 4.87%, Cc1ccc(CNS(=O)(=O)c2ccc3c(c2)CC(C)N3C(=O)C2CCC2)cc1 (stereo not drawn) 9.94%, COc1ccc(OC)c(C(=O)CN2C(=O)N(c3ccc(C)cc3)S(=O)(=O)c3ccccc32)c1 -9.51%, Cc1ccccc1NC(=O)CCn1nc(-c2ccccc2)c2ccccc2c1=O -4.51%, Cc1nnc(SCC(=O)Nc2ccc(N(C)C)cc2)[nH]c1=O -0.355%

outcome, inactive:
COc1ccc(-c2nc3scc(CCNS(=O)(=O)c4ccc5c(c4)OCCO5)n3n2)cc1, O=C(Oc1ccccc1F)c1nc(SCc2ccc(F)cc2)ncc1Cl, Cc1ccc(-c2cc3nc(-c4ccccc4)cc(C(F)(F)F)n3n2)cc1, Cc1ccc(NC(=O)C2CCN(S(=O)(=O)c3cccc4nonc34)CC2)cc1C, Cc1ccc(S(=O)(=O)c2c(O)cc(C)c(NS(=O)(=O)c3ccc(Cl)cc3)c2C)cc1, CC(C)c1nn2c(=O)cc(COC(=O)c3ccco3)nc2s1, O=C(CSc1nc(=O)[nH]c2c1CCCC2)NCc1ccccc1, Cc1ccc(S(=O)(=O)CC(=O)N2CCN(c3nc4c(F)cccc4s3)CC2)cc1, COc1ccc(CNC(=O)CCc2c(C)c3cc4c(C)coc4c(C)c3oc2=O)cc1OC, CCCc1nn2c(=O)cc(COC(=O)c3ccc(NC(=O)COc4ccccc4)cc3)nc2s1, COc1ccc(N(C)C(=O)c2cn(C)c(=O)c3cc(OC)c(OC)cc23)cc1, Cc1ccc(-c2ccc(=O)n(CCC(=O)NCCc3ccccc3)n2)cc1, Cc1cccc(N2CCN(C(=O)C3CCN(S(=O)(=O)c4c(C)noc4C)CC3)CC2C)c1 (stereo not drawn), CCCC(=O)OCc1cnc(C)c2oc(=O)c(C(=O)Nc3cccc(C(F)(F)F)c3)cc12, COc1cccc(N2CCN(C(=O)C3CCN(S(=O)(=O)c4c(C)noc4/C=C/c4ccccc4F)CC3)CC2)c1, CC(C)(C)C(=O)NCC(c1ccc2c(c1)OCO2)N1CCOCC1 (stereo not drawn), COC(=O)c1cc2oc3ccccc3c2n1Cc1ccccc1Cl, COc1ccccc1CNC(=O)CCCCn1c(=O)c2ccccc2n(CC(=O)Nc2cccc(Cl)c2)c1=O, CCOc1ccc(/C=C/c2nc(C#N)c(N3CCC(C)CC3)o2)cc1, CCOC(=O)CSc1nc2sc3c(c2c(=O)n1-c1ccc(OC)cc1)CC(C(C)C)OC3 (stereo not drawn), COC(=O)c1c(-c2cccs2)csc1NC(=O)c1ccc(C)cc1, CCOc1ccc(Sc2cc(C(=O)NCc3ccccc3Cl)c3ccccc3n2)cc1, CCc1ccc(NC(=O)Cn2c(=O)n(CCCC(=O)NCCc3ccc(OC)c(OC)c3)c(=O)c3ccccc32)cc1
